Source: paper PMC3426524
Results are given in words; binding and its absence hold for the method and conditions named. Binding seen in cells or lysates may run through a third protein. Some binding calls cover weakened binding; strength is not graded here. One block for each molecule: values may come before it.

Sequences of proteins named here, by UniProt entry; tags and fusion partners are left off.
UniProt Q8NI27: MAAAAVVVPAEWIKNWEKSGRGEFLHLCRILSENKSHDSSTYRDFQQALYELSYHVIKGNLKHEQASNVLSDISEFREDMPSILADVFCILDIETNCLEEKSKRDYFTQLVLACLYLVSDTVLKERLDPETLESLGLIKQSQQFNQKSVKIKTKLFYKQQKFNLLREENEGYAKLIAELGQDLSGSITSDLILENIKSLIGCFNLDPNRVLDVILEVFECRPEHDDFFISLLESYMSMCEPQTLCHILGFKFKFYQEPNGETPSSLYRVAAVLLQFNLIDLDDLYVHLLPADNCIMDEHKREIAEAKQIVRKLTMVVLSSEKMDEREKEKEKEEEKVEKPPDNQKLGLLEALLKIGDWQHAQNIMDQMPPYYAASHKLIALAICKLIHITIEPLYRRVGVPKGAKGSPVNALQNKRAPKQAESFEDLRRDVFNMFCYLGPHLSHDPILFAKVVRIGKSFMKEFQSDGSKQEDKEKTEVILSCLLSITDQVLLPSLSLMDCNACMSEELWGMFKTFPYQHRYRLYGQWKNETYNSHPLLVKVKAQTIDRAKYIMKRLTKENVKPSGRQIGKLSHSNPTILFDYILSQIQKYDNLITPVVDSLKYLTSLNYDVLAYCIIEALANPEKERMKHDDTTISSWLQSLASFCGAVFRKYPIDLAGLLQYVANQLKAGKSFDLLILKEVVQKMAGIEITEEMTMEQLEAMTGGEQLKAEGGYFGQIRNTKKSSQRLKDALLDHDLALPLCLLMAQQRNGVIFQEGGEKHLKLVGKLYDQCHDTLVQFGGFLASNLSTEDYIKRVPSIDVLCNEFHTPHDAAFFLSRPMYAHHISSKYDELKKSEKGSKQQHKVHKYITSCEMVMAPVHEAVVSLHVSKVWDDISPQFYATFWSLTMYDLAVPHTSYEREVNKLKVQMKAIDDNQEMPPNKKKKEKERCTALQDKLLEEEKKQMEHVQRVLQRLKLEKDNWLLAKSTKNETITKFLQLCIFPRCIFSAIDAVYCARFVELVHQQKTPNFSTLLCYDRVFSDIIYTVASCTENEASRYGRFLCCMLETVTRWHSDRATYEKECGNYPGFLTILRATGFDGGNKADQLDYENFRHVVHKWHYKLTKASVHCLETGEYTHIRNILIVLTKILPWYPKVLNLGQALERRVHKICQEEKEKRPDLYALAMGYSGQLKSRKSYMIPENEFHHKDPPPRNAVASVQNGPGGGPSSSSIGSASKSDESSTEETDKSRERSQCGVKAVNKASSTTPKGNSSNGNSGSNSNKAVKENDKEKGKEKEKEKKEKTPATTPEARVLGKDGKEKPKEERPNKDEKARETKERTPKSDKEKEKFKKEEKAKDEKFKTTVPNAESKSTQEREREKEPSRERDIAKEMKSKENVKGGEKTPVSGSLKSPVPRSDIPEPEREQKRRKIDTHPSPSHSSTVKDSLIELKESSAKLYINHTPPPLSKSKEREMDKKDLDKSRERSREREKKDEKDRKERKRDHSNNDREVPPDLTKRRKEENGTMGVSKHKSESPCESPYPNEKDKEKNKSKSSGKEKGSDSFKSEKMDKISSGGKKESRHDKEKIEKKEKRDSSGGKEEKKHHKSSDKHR
UniProt Q13838: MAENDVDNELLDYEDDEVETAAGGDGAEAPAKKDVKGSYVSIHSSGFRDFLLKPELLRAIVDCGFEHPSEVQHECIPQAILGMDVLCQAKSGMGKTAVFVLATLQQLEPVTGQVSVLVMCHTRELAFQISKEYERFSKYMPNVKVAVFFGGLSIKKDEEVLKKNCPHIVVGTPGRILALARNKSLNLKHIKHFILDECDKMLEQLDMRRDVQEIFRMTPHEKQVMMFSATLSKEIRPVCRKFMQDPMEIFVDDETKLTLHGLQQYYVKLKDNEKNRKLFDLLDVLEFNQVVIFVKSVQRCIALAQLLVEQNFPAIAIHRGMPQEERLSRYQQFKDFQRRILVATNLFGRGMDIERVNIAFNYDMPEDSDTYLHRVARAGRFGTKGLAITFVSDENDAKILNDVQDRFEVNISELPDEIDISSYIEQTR
UniProt O75152: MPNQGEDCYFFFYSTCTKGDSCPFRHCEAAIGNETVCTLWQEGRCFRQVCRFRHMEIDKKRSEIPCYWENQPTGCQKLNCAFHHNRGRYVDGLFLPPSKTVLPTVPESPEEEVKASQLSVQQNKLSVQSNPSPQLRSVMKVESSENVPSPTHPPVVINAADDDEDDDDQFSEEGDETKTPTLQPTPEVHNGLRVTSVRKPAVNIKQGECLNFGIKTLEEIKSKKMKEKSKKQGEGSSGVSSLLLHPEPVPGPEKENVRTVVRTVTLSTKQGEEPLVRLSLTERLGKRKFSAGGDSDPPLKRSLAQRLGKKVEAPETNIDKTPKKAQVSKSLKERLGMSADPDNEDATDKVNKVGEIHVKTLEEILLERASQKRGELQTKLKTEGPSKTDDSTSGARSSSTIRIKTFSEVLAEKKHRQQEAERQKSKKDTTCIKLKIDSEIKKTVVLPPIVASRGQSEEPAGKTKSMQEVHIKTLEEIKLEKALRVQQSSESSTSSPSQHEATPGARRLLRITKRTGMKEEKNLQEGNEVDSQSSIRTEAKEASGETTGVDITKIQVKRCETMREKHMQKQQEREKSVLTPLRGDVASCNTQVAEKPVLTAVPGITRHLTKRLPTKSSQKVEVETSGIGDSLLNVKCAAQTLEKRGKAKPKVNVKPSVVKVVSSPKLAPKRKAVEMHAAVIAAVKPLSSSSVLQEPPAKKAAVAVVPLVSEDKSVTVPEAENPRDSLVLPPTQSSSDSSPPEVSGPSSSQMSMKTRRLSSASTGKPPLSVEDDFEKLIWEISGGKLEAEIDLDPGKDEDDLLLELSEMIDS

Assays:
[1] = target: THOC2 (human (endogenous in HeLa)) (UniProt Q8NI27); assay: co-IP; without ATP: as the +ATP IP, but ATP, MgCl2 and creatine phosphate omitted and substituted with water; RNase-treated HeLa nuclear extract; Western
[2] = target: UAP56 (human (endogenous in HeLa)) (UniProt Q13838); assay: as above
[3] = target: THOC2 (human (endogenous in HeLa)) (UniProt Q8NI27); assay: co-IP; with ATP: antibodies cross-linked to protein A Sepharose; HeLa nuclear extract with 500 µM ATP, 3.2 mM MgCl2, 20 mM creatine phosphate and 50 ng/µl RNase A, 20 min at 30°C; IP overnight at 4°C in 1X PBS, 0.1% Triton; Western
[4] = target: UAP56 (human (endogenous in HeLa)) (UniProt Q13838); assay: as above
[5] = target: THOC2 (human (endogenous in HeLa)) (UniProt Q8NI27); assay: as above; remark: listed apart in the source
[6] = target: UAP56 (human (endogenous in HeLa)) (UniProt Q13838); assay: as above; remark: listed apart in the source

- binding [1]: no binding (condition: without ATP)
- binding [2]: no binding (condition: without ATP)
- binding [3]: binds
- binding [4]: binds
Molecule: ZC11A (from UniProt O75152 1-810)

- binding [5]: binds
- binding [6]: binds
B1: PDIP3α (protein, UniProt Q9BY77 1-421)
chain: MADISLDELIRKRGAAAKGRLNARPGVGGVRSRVGIQQGLLSQSTRTATFQQRFDARQKIGLSDARLKLGVKDAREKLLQKDARFRIKGKVQDAREMLNSRKQQTTVPQKPRQVADAREKISLKRSSPAAFINPPIGTVTPALKLTKTIQVPQQKAMAPLHPHPAGMRINVVNNHQAKQNLYDLDEDDDGIASVPTKQMKFAASGGFLHHMAGLSSSKLSMSKALPLTKVVQNDAYTAPALPSSIRTKALTNMSRTLVNKEEPPKELPAAEPVLSPLEGTKMTVNNLHPRVTEEDIVELFCVCGALKRARLVHPGVAEVVFVKKDDAITAYKKYNNRCLDGQPMKCNLHMNGNVITSDQPILLRLSDSPSMKKESELPRRVNSASSSNPPAEVDPDTILKALFKSSGASVTTQPTEFKIKL

- binding [5]: binds
- binding [6]: binds
B2: PDIP3β (protein, UniProt Q9BY77-2 1-392)
chain: MADISLDELIRKRGAAAKGRLNARPGVGGVRSRVGIQQGLLSQSTRTATFQQRFDARQKIGLSDARLKLGVKDAREKLLQKDARFRIKGKVQDAREMLNSRKQQTTVPQKPRQVADAREKISLKRSSPAAFINPPIGTVTPALKLTKTIQNLYDLDEDDDGIASVPTKQMKFAASGGFLHHMAGLSSSKLSMSKALPLTKVVQNDAYTAPALPSSIRTKALTNMSRTLVNKEEPPKELPAAEPVLSPLEGTKMTVNNLHPRVTEEDIVELFCVCGALKRARLVHPGVAEVVFVKKDDAITAYKKYNNRCLDGQPMKCNLHMNGNVITSDQPILLRLSDSPSMKKESELPRRVNSASSSNPPAEVDPDTILKALFKSSGASVTTQPTEFKIKL
